Reference: PubChem BioAssay AID1508623 (National Center for Advancing Translational Sciences (NCATS), 2021)
Screen size: about 48,000 compounds; about 450 (0.94%) were called active. Another 19% or so got no clear call; they are omitted. Calls follow the shape of the dose curve; as a rule, active = well fitted inhibition curve with a large enough effect; inconclusive = small, poorly fitted or top-dose-only effect; inactive = no such curve, though single readings can be large or run the other way. Some of the results follow.

Assay: Primary qHTS for Identification of Small Molecule Inhibitors of Huntingtin Promoter Activity; also: nearly all actives have a fitted effect of over 50% in size
Conditions: HEK293 HTT promoter firefly luciferase reporter (activity 0% = vehicle and -100% = no light), 24 h; series mostly up to 57.5 µM; activity change, negative = inhibition: at the top concentration
How it was run: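 HEK293 Fluc reporter, 2,500 cells/well, 24 h pre-culture; cpds up to 57.5 uM final, 24 h 37 degrees C; Dual-Glo, 10 min RT; normalized vehicle = 0%, zero RLU = -100%.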

Row | SMILES | activity change, negative = inhibition
1 | COC(=O)c1c(-c2ccc(Cl)cc2)noc1N1CCN(c2cccc(C)c2C)CC1 | inactive: -4.52%
2 | CCc1cnc2c(c1SCC(=O)Nc1ccc(OC)c(OC)c1)c(=O)n(C)c(=O)n2C | inactive: -21%
3 | COc1cccc(CNC(=O)Cn2nc3c(cc2=O)CCCC3)c1OC | inactive: 7.88%
4 | CC1CCCN(C(=O)CCS(=O)(=O)c2cc3c(cc2Cl)NC(=O)CO3)C1 (configuration not stated) | inactive: -5.15%
5 | CCOC(=O)c1noc2ncn(Cc3cccc(C#N)c3)c(=O)c12 | inactive: 1.1%
6 | Cc1cc(Cl)ccc1NC(=O)CN1C(=O)COc2ccc(S(=O)(=O)N3CCC(C)CC3)cc21 | inactive: -4.25%
7 | Cc1c(C(=O)OC2CCC(C)CC2)[nH]c2c1C(=O)CC(c1ccccc1Cl)C2 (configuration not stated) | inactive: -21.1%
8 | CCOc1ccc(CCNC(=O)CCCc2nnc3n(C)c(=O)c4sccc4n23)cc1OCC | inactive: -9.64%
9 | COc1ccc(OCC(=O)Nc2nc(-c3ccc(Br)cc3)ns2)cc1 | inactive: 24.9%
10 | CCNc1nc(NC(C)CC)nc(Oc2ccc(OCC)nn2)n1 (configuration not stated) | inactive: 28.2%
11 | COc1ccc(NC(=O)NCc2c(-n3cccc3)sc3c2CCCC3)c(OC)c1 | inactive: -9.84%
12 | CCc1cccc(C)c1NC(=O)NC1COc2ccccc2C1 (configuration not stated) | inactive: -6.88%
13 | COc1ccc(NC(=O)CSc2nc(-c3ccc(OC)c(OC)c3)[nH]c2-c2ccc(C)cc2)cc1 | inactive: -20.2%
14 | COc1ccc(NCc2cc3cc4c(cc3n(CC(=O)Nc3ccccc3)c2=O)OCO4)cc1 | inactive: -13.4%
15 | CCOC(=O)Cc1ccc(NC(=O)N(C(C)C)C2CCN(C(C)=O)CC2)cc1 | inactive: 3.8%
16 | Cn1c(=O)c2c(n3c4ccccc4nc13)NC(=O)CC2c1cccc(Cl)c1 (configuration not stated) | inactive: -29.9%
17 | COC(=O)c1sccc1S(=O)(=O)N1CCN(c2ccc(C(C)=O)cc2)CC1 | inactive: -10.6%
18 | CCN(CC)CCOC(=O)c1ccc(NC(=O)c2cc3cccc(OC)c3oc2=O)cc1 | inactive: 25.7%
19 | C[C@](N)(Cc1ccc(O)c(O)c1)C(=O)O | inactive
20 | CCOCCc1nn2c(=O)cc(COC(=O)c3cccc(C)c3)nc2s1 | inactive: 1.2%
21 | Cc1ccc(-c2cc(C(=O)Nc3c(C(=O)c4ccc(C)c(F)c4)oc4ccccc34)no2)cc1 | inactive: -5.91%
22 | CCOC(=O)c1c(NC(=O)CSc2cn(CCNC(=O)c3c(F)cccc3F)c3ccccc23)sc2c1CCCC2 | inactive: -28.4%
23 | COc1ccc(S(=O)(=O)NCCc2sc(-c3ccccc3)nc2C)cc1F | inactive: -21.2%
24 | Cc1ccc(Cl)cc1N1CCN(S(=O)(=O)c2ccc(-c3cnc(C4CC4)o3)cc2)CC1 | inactive: -16.5%
25 | CC(=O)c1ccc(NC(=O)c2cc(C3CC3)nc3c2c(C)nn3-c2ccc(C)cc2)cc1 | inactive: -8.72%
26 | CC(C)c1ccc(NC(=O)CN2C(=O)CCc3cc(S(=O)(=O)N4CCOCC4)ccc32)cc1 | inactive: -29.3%
27 | COc1ccc(C(=O)N2CCN(C(=O)COc3ccc(C)cc3)CC2)cc1OC | inactive: 8.13%
